Test system: carbachol induced bradycardia (mainly muscarinic M2 receptors)
Test: Carbachol induced bradycardia in anesthetized rats (tiotropium derivatives)
Assay type: in vivo, rat
Conditions: compared with atropine and ipratropium bromide
Text: Intravenous administration of the cholinomimetic carbachol causes sinus bradycardia (increasing the PP cycle and RR cycle length of the ECG) in anesthetized rats. This effect, which is mediated mainly by muscarinic M2 receptors, can be prevented by prior administration of anticholinergic agent. […] Compound (aa) can be similarly evaluated.

## CCOC(=O)C[N+]1(C)[C@@H]2C[C@@H](OC(=O)C(O)(c3cccs3)c3cccs3)C[C@H]1[C@@H]1O[C@@H]12 (stereo partly drawn) [Compound (w), 6β,7β-epoxy-3β-hydroxy-8-ethoxycarbonylmethyl-8-methyl-1αH,5αH-tropanium bromide, di-2-thienylglycolate]
  Bradycardia protective effect: less active than an equimolar dose of atropine, and was slightly less active than a 10-fold lower dose of ipratropium bromide

— patent US8568699B2, “Soft anticholinergic zwitterions” (priority 2005, dated 2013)
